# Assay results taken from the supplement of paper PMC10126150.
# Values marked as one replicate rest on one cluster of the flow cell; about a third of the high ones do not repeat.
# Tested on: ATP
# Assay: switch fluorescence ratio, 500 uM ATP over buffer (Cy3 cluster intensity, sum of 5 cycles each) (fold (ratio)); higher = stronger signal-on switching upon ATP binding; sequences stand for … in TCGTCGGCAGCGTCAGATGTGTATAAGAGACAGTTTTTTTTTTTTTTTTTTTTTTTTT…TC
# Settings: aptamer strand: ATP DNA aptamer (quencher-CACCTGGGGGAGTATTGCGGAGGAAGG + anchor), 100 nM annealed; ATP concentration: 500 uM; one replicate
# In short: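 Imaging in selection buffer was followed by imaging after 15 min with 500 uM ATP at 22 °C, for Cy3-labelled switching-strand clusters annealed to 100 nM quencher-labelled ATP aptamer on a modified Illumina MiSeq flow-cell. Five of these buffer/ATP cycles ran, separated by NaOH stripping and re-annealing. The fluorescence ratio per cluster is summed target-cycle over summed buffer-cycle Cy3 intensity, averaged per switch-domain sequence; clusters outside 100-1000 RFU were removed.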
# 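Also: ATP exposure 15 min at 22 °C before imaging.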
row,Sequence,switch fluorescence ratio
1,GGGTCGACC,0.988
2,GGGTCGGGCG,0.998
3,GGGTCGGTA,0.984
4,GGGTCGTTTT,0.955
5,GGGTCTGATG,1.01
6,GGGTGAAGCT,1.03
7,GGGTGAATTT,0.985
8,GGGTGCCTGA,0.946
9,GGGTGTCACC,0.976
10,GGGTGTCAGG,1.01
11,GGGTGTGCCT,0.99
12,GGGTGTGTAT,0.975
13,GGGTGTTGGG,1.04
14,GGGTTAACT,1
15,GGGTTACTTC,1.03
16,GGGTTATCCG,1.07
17,GGGTTATCGT,0.982
18,GGGTTATGAT,0.98
19,GGGTTCGGCG,1.02
20,GGGTTCTATC,1.02
21,GGGTTTCTAG,1.04
22,GGTAAAAGG,0.975
23,GGTAACAAGT,1.1
24,GGTAACATTC,1.03
25,GGTAACGAAC,1.32
26,GGTAACGGTA,1.01

row,Sequence,switch fluorescence ratio
1,GGTAACTGG,0.968
2,GGTAAGGAGG,0.946
3,GGTAATCGCA,1.03
4,GGTAATT,0.97
5,GGTACAAAG,1.04
6,GGTACATAA,1.01
7,GGTACATCGT,0.957
8,GGTACGAACA,1.33
9,GGTAGAAAAG,0.965
10,GGTAGAATC,1.02
11,GGTAGATGAG,0.973
12,GGTAGCATAT,1.15
13,GGTAGCCTCA,0.947
14,GGTAGCGAG,1
15,GGTAGGACGT,1
16,GGTAGGGACT,0.97
17,GGTAGTGCTA,0.989
18,GGTAGTTCGC,1
19,GGTATACATT,1.07
20,GGTATCAAAG,1.01
21,GGTATCCCTA,1.03
22,GGTATCGCTA,1.02
23,GGTATCTGGT,0.937
24,GGTATGACTC,0.904
25,GGTATGCGTT,1.05
26,GGTATTATAG,1.01

row,Sequence,switch fluorescence ratio
1,GGTATTATCT,0.998
2,GGTATTCTTG,1
3,GGTATTGAGC,1.03
4,GGTATTTCAA,0.955
5,GGTATTTCGG,1
6,GGTCAAATCG,0.957
7,GGTCAAGTCA,1.02
8,GGTCAATTGC,1.12
9,GGTCAATTTT,1
10,GGTCACAATG,1.03
11,GGTCACACTT,0.977
12,GGTCAGAAAG,1.02
13,GGTCAGGCCA,0.992
14,GGTCAGGTAT,0.957
15,GGTCCAAATC,1.02
16,GGTCCAAGAC,1.1
17,GGTCCATG,1.01
18,GGTCCCAGCG,1.16
19,GGTCCGGG,1.01
20,GGTCCGTAT,1.05
21,GGTCGAACCA,1.03
22,GGTCGAGGCG,1
23,GGTCGGATAA,1.02
24,GGTCGGATCT,0.993
25,GGTCGGCAGT,0.968
26,GGTCGGGAGG,0.987

row,Sequence,switch fluorescence ratio
1,GGTCGTATAC,1.3
2,GGTCGTATCG,0.928
3,GGTCTACCCT,1.02
4,GGTCTACGTG,1.03
5,GGTCTCAGCG,1.04
6,GGTCTCCGCG,1.34
7,GGTCTCGTAC,0.994
8,GGTCTCGTCG,0.995
9,GGTCTGACAG,0.971
10,GGTCTGTTCT,0.955
11,GGTCTTCGG,1.01
12,GGTCTTTGAG,1.01
13,GGTGAAACCA,0.982
14,GGTGAACGGC,1.05
15,GGTGACACTG,0.975
16,GGTGACCGCG,1.04
17,GGTGACGGTG,0.967
18,GGTGACTAGA,1.03
19,GGTGAGTGCC,1.05
20,GGTGATACCA,1.03
21,GGTGATGAAG,0.974
22,GGTGATGCCG,0.971
23,GGTGATTCTA,1.06
24,GGTGCCGGAG,1
25,GGTGCTACAA,0.988
26,GGTGCTTACT,1.04

row,Sequence,switch fluorescence ratio
1,GGTGCTTATT,1
2,GGTGGATGAA,0.968
3,GGTGGCCCCC,1.02
4,GGTGGCGCAC,0.985
5,GGTGGCGGTG,0.981
6,GGTGGCGTTG,0.982
7,GGTGGCTCTC,0.964
8,GGTGGGAGAT,0.972
9,GGTGGTGTAC,1.29
10,GGTGGTTACC,1
11,GGTGGTTGGT,0.983
12,GGTGTAGACG,1.02
13,GGTGTATTGC,1.06
14,GGTGTCTACG,0.997
15,GGTGTGAACG,1.02
16,GGTGTGGACT,0.969
17,GGTGTGGTTT,1
18,GGTGTTGAAA,0.966
19,GGTGTTGGGT,1
20,GGTTAATTCA,1.01
21,GGTTACGTG,1.05
22,GGTTACTGTG,1.04
23,GGTTACTT,0.989
24,GGTTAGAACA,0.971
25,GGTTAGAAGC,1.01
26,GGTTAGAAGT,0.98

row,Sequence,switch fluorescence ratio
1,GGTTAGATTA,0.982
2,GGTTAGGCTC,1.07
3,GGTTAGTGAA,1
4,GGTTATAC,1.05
5,GGTTATGCTA,1.01
6,GGTTCAATAT,1.02
7,GGTTCAGGTT,1
8,GGTTCCACGT,1.04
9,GGTTCCGCTC,2.22
10,GGTTCGACGA,0.924
11,GGTTCGAGCC,1.06
12,GGTTCGAGTC,1.05
13,GGTTCGCCAC,0.976
14,GGTTCTGAGT,1.02
15,GGTTCTGTTC,1.03
16,GGTTGAGAGT,1.04
17,GGTTGAGTTG,1.02
18,GGTTGATCTT,0.986
19,GGTTGCACCT,0.998
20,GGTTGCAGAT,0.997
21,GGTTGCTAGA,1.03
22,GGTTGCTCTG,0.987
23,GGTTGGATT,0.994
24,GGTTGTCATC,0.978
25,GGTTTACGCA,1.04
26,GGTTTAGTGC,0.985

row,Sequence,switch fluorescence ratio
1,GGTTTATAAC,1.09
2,GGTTTATTCT,1.02
3,GGTTTCGGC,0.989
4,GGTTTCTGG,0.991
5,GGTTTCTGGT,0.982
6,GGTTTGAGCC,0.924
7,GGTTTGCCGC,1.08
8,GGTTTGGAC,1.01
9,GGTTTTCGGT,0.991
10,GGTTTTGGCA,1.02
11,GGTTTTTGAC,0.977
12,GTAAAACTGA,1.06
13,GTAAAATATT,0.994
14,GTAAACATTC,1.15
15,GTAAACTGAA,1.01
16,GTAAACTTGT,0.981
17,GTAAAGAAGC,1.03
18,GTAAAGTTAA,0.938
19,GTAAATTCCT,1.42
20,GTAACAAAAA,0.937
21,GTAACAAGGT,0.996
22,GTAACCACCG,1.03
23,GTAACGCTAT,1.17
24,GTAACGTTTG,0.997
25,GTAACTATA,1.07
26,GTAAGAAAGC,0.992

row,Sequence,switch fluorescence ratio
1,GTAAGAAGAT,0.971
2,GTAAGACAGG,0.993
3,GTAAGAGTCG,1.03
4,GTAAGCAGTG,0.986
5,GTAAGCTCTA,0.996
6,GTAAGGGTTC,0.952
7,GTAAGTGTCA,0.985
8,GTAAGTTCCC,1
9,GTAATAAGTA,1.01
10,GTAATACGAG,3.14
11,GTAATACTGT,1.17
12,GTAATAGAGC,0.994
13,GTAATGGCAC,1.04
14,GTAATGGGAA,0.987
15,GTAATTAGCG,0.993
16,GTAATTATTT,1.03
17,GTAATTTATA,1.02
18,GTACCAGCCT,1.06
19,GTACCAGTAC,1.12
